# Results: the supplement of paper PMC8728848
# The other results are listed elsewhere or left out.
# B1: Epa1-NP-mutant-E227A (Candida glabrata), Q6VBJ0 (protein)
# chain: MILNPALFLNKCVCIYTTLILLLLTNGGYATSSNDISLASKDPTTFPLGCSPDITTPKKGLSMELYSYDFRKKGSYPCWDAAYLDPNYPRTGYKSHRLLAKVDGVTGNINFYYHATKGCTPQLGHLPASYNYPKPLTMTNFTMLLYGYFRPKVTGFHTFTISADDLLFVNFGAGNAFDCCRRDSSADHFGNYQAYAIWGSKTAKDELTVHLDAGVYYPIRLFYNNRAYDGALSFTFKTESNENTVSDFSEYFFSLDDTEEGCPGLISYDSSCASVKTSKIIGIDYHTETPNENLVPITKTIYHLGIPCTGTTTTPLCGSGFYDPLANKCVTINTSSTSSVTKTTSHTTSKEVSFHSSISSQKTLIPKSIPSPYGPIKSQSIPTEMETSSEISSSEYAFSDVISTPSHSPYTKKHSSLNSSSYTSTVIHSLTSYSISQGIFSTSLSEQNITSKSSTDKFSTATSMSNNITQSSIIISQFSTNNENYTTTSMHTSSDKISTETLNNSISTTTSILFSNSSTILKNNTTIISSDKDTHYHPVNPTIVCSTNKTEIICASITQPSISNSNNHWSSSVLKFNSTTVRSTLPSSAGSNETSINVPFSSSTESNTSTSSTSTSNSKMVRSTLPSSAGSNETSISVPFSSSTESNTSTSSTSTSNSKMVRSTLPSSAGSNETSINVPFSSSTESNTSTSSTSTSNSKTVRSTPFSSAGIIMTSLSQRNNKSASSYASSNSKCYNTADSCRKVHSTPSYLLTSSYTSEGVDYDCSLVSTKLKINDTNCVNNKHTTKSCLKTSVTTTIPTLEIKTARKSSSNTIGLHSYPTSSPNKSISSAPIIGYISSFKTIKTASPSYQTSDLTTITTITSLNNPGSTAVENTHESNDKSRKTSSNDISSKHSVIKETKDAVESSNKSHQTNTLKCSSIIIASSSHNSYESLGGTTLTLTLSKVYSPQNNDTLPFLEISEVNPSRTVLPESSKMMQYLTSTEERNKTARNTIATNIVSISTFHFEGEGNAIRMGYTQLLLMLIGIIVMNIGT
# What was measured:
# Test in all cases: glycan array binding signal (z-score within array); higher = stronger binding
# Details in all cases: glycan notation: IUPAC condensed, linker removed; mutation: E227A
# GalNAc(b1-4)GlcNAc = molecular target: GalNAc(b1-4)GlcNAc
# Method in brief: (§1)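 Glycan array data came from 3228 arrays in the Consortium for Functional Glycomics database, and only arrays with an available protein sequence were kept. Glycan names were put into IUPAC-condensed notation, and columns mapping to the same glycan were averaged. The binding signal is a within-array Z-score, averaged across arrays of one protein sequence run at different concentrations or buffers and across linkers. A negative Z-score can be read as non-binding.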
# [1] = molecular target: GalNAc(b1-4)GlcNAc(b1-2)Man
# Method in brief: as §1
# [2] = molecular target: GalNAc(b1-4)GlcNAc(b1-2)Man(a1-3)[GalNAc(b1-4)GlcNAc(b1-2)Man(a1-6)]Man(b1-4)GlcNAc(b1-4)GlcNAc
# Method in brief: as §1
# [3] = molecular target: GalNAc(b1-4)GlcNAc(b1-3)GalNAc(b1-4)GlcNAc
# Method in brief: as §1
# GalNAc(b1-4)GlcNAc6S = molecular target: GalNAc(b1-4)GlcNAc6S
# Method in brief: as §1
# GalNAc(b1-6)GalNAc = molecular target: GalNAc(b1-6)GalNAc
# Method in brief: as §1
# GalNAc3S(b1-4)GlcNAc = molecular target: GalNAc3S(b1-4)GlcNAc
# Method in brief: as §1
# GalNAc3S(b1-4)GlcNAc3S = molecular target: GalNAc3S(b1-4)GlcNAc3S
# Method in brief: as §1
# [4] = molecular target: GalNAc3S(b1-4)[Fuc(a1-3)]GlcNAc
# Method in brief: as §1
# GalNAc4S6S(b1-4)GlcNAc = molecular target: GalNAc4S6S(b1-4)GlcNAc
# Method in brief: as §1
# GalNAc6S(b1-4)GlcNAc = molecular target: GalNAc6S(b1-4)GlcNAc
# Method in brief: as §1
# Glc(a1-4)Glc = molecular target: Glc(a1-4)Glc
# Method in brief: as §1
# [5] = molecular target: Glc(a1-4)Glc(a1-4)Glc(a1-4)Glc
# Method in brief: as §1
# Glc(a1-6)Glc(a1-6)Glc = molecular target: Glc(a1-6)Glc(a1-6)Glc
# Method in brief: as §1
# [6] = molecular target: Glc(a1-6)Glc(a1-6)Glc(a1-6)Glc
# Method in brief: as §1
# Glc(b1-4)Glc = molecular target: Glc(b1-4)Glc
# Method in brief: as §1
# Glc(b1-6)Glc = molecular target: Glc(b1-6)Glc
# Method in brief: as §1
# GlcA(b1-3)Gal = molecular target: GlcA(b1-3)Gal
# Method in brief: as §1
# GlcA(b1-3)GlcNAc = molecular target: GlcA(b1-3)GlcNAc
# Method in brief: as §1
# GlcA(b1-6)Gal = molecular target: GlcA(b1-6)Gal
# Method in brief: as §1
# [7] = molecular target: GlcA3S(b1-3)Gal(b1-4)GlcNAc(b1-2)Man
# Method in brief: as §1
# [8] = molecular target: GlcA3S(b1-3)Gal(b1-4)GlcNAc(b1-3)Gal(b1-4)Glc
# Method in brief: as §1
# [9] = molecular target: GlcNAc(a1-3)Gal(b1-4)GlcNAc
# Method in brief: as §1
# [10] = molecular target: GlcNAc(a1-4)Gal(b1-3)GlcNAc
# Method in brief: as §1
# [11] = molecular target: GlcNAc(a1-4)Gal(b1-4)GalNAc
# Method in brief: as §1
# [12] = molecular target: GlcNAc(a1-4)Gal(b1-4)GlcNAc
# Method in brief: as §1
# [13] = molecular target: GlcNAc(a1-4)Gal(b1-4)GlcNAc(b1-3)Gal(b1-4)Glc
# Method in brief: as §1
# [14] = molecular target: GlcNAc(a1-4)Gal(b1-4)GlcNAc(b1-3)Gal(b1-4)GlcNAc
# Method in brief: as §1
# [15] = molecular target: GlcNAc(a1-4)Gal(b1-4)GlcNAc(b1-3)Gal(b1-4)GlcNAc(b1-3)Gal(b1-4)GlcNAc
# Method in brief: as §1
# [16] = molecular target: GlcNAc(a1-4)Gal(b1-4)GlcNAc(b1-3)Gal(b1-4)[Fuc(a1-3)]GlcNAc(b1-3)Gal(b1-4)[Fuc(a1-3)]GlcNAc
# Method in brief: as §1
binder,measurement,setting,value
B1,glycan array binding signal (z-score),GalNAc(b1-4)GlcNAc,-0.201
same,glycan array binding signal (z-score),[1],-0.185
same,glycan array binding signal (z-score),[2],-0.201
same,glycan array binding signal (z-score),[3],-0.18
same,glycan array binding signal (z-score),GalNAc(b1-4)GlcNAc6S,-0.184
same,glycan array binding signal (z-score),GalNAc(b1-6)GalNAc,-0.216
same,glycan array binding signal (z-score),GalNAc3S(b1-4)GlcNAc,-0.193
same,glycan array binding signal (z-score),GalNAc3S(b1-4)GlcNAc3S,-0.177
same,glycan array binding signal (z-score),[4],-0.197
same,glycan array binding signal (z-score),GalNAc4S6S(b1-4)GlcNAc,-0.197
same,glycan array binding signal (z-score),GalNAc6S(b1-4)GlcNAc,-0.199
same,glycan array binding signal (z-score),Glc(a1-4)Glc,-0.197
same,glycan array binding signal (z-score),[5],-0.173
same,glycan array binding signal (z-score),Glc(a1-6)Glc(a1-6)Glc,-0.201
same,glycan array binding signal (z-score),[6],-0.197
same,glycan array binding signal (z-score),Glc(b1-4)Glc,-0.192
same,glycan array binding signal (z-score),Glc(b1-6)Glc,-0.197
same,glycan array binding signal (z-score),GlcA(b1-3)Gal,-0.191
same,glycan array binding signal (z-score),GlcA(b1-3)GlcNAc,-0.196
same,glycan array binding signal (z-score),GlcA(b1-6)Gal,0.587
same,glycan array binding signal (z-score),[7],-0.203
same,glycan array binding signal (z-score),[8],-0.218
same,glycan array binding signal (z-score),[9],-0.198
same,glycan array binding signal (z-score),[10],-0.184
same,glycan array binding signal (z-score),[11],-0.211
same,glycan array binding signal (z-score),[12],-0.198
same,glycan array binding signal (z-score),[13],-0.194
same,glycan array binding signal (z-score),[14],-0.195
same,glycan array binding signal (z-score),[15],-0.192
same,glycan array binding signal (z-score),[16],-0.146
